Sequences and labels used below:
B1: Caulobacter ParB omega fusion; a variant is named by its letters at X, in order, B8GW30 (parent)
chain: MESVVVGEPGMSEGRRGLGRGLSALLGEVDAAPAQAPGEQLGGSREAPIEILQRNPDQPRRTFREEDLEDLSNSIREKGVLQPILVRPSPDTAGEYQIVAGERAWRAAQRAGLKTVPIMVRELDDLAVLEIGIIENVQRADLNVLEEALSYKVLMEKFERTQENIAQTIGKSXSHVANXMRLLXLPDEVQSYLVSGELTAXHARAIAAAADPVALAKQIIEGGLSVRETEALARKAPNLSAGKSKGGRPPRVKDTDTQALESDLSSVLGLDVSIDHRGSTGTLTITYATLEQLDDLCNRLTRGI

Over roughly 81,000 sequences, “one-hybrid fitness for binding NBS DNA” has its median near -0.1; the highest 2% begin near 0.36. The list shows a part of the results.

Variants of B1 are the subject of this test. The experiment in a line: one-hybrid fitness for binding NBS DNA (the Noc-binding site; scaled: cognate 1, non-cognate 0); higher = stronger binding. The note with it: with NBS DNA site. An outline of the steps: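 Pre- and post-selection plasmids were Illumina-sequenced, three replicate libraries were pooled, and any variant with under 10 reads was removed. The libraries were Caulobacter ParB with four specificity codons randomised, selected in E. coli USO through a HIS3 reporter whose site is 19 bp from the promoter. Cells grew 48 hours at 37°C on M9 without histidine, with 0.1 mM IPTG and 5 mM 3-AT. Fitness is the log change in variant-to-wild-type read ratio, rescaled against cognate and non-cognate.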
With KAGT, the “one-hybrid fitness for binding NBS DNA” value was at most 0.2.
The same measure for RELR: at most 0.2; for IGYC: at most 0.2.
The same measure for QEVC: at most 0.2; for SVLS: at most 0.2; for DTYA: at most 0.2.
The same measure for GALY: at most 0.2.
On to YAEK, for which the “one-hybrid fitness for binding NBS DNA” value is at most 0.2.
Regarding PDPE, the “one-hybrid fitness for binding NBS DNA” value was at most 0.2.
Next, RPWA: at most 0.2.
For ENIK, the “one-hybrid fitness for binding NBS DNA” value is at most 0.2.
Next, HHEC: at most 0.2; SMDF: at most 0.2.
Next, ADLF: at most 0.2; PLKW: at most 0.2; LAEM: at most 0.2.
The same measure for ESRP: at most 0.2.
TKAE: the “one-hybrid fitness for binding NBS DNA” value was at most 0.2.
Next, SNHD: at most 0.2; LLNK: at most 0.2.
GLPE: the “one-hybrid fitness for binding NBS DNA” value is at most 0.2.
As to ARGC, the “one-hybrid fitness for binding NBS DNA” value is at most 0.2.
Next, QMWG: at most 0.2; GNLL: at most 0.2.
The same measure for PQPE: at most 0.2; for CCTP: at most 0.2; for FRPH: at most 0.2.
Next, ENSR: at most 0.2.
For QGVI, the “one-hybrid fitness for binding NBS DNA” value is at most 0.2.
As to DGAK, the “one-hybrid fitness for binding NBS DNA” value was at most 0.2.
Turning to YCPV, the “one-hybrid fitness for binding NBS DNA” value is at most 0.2.
The same measure for GWLG: at most 0.2; for CIYD: at most 0.2.
The same measure for TAMY: at most 0.2; for AVKV: at most 0.2; for WAFC: at most 0.2.
Consider CHTE, for which the “one-hybrid fitness for binding NBS DNA” value was at most 0.2.
The same measure for ANEM: at most 0.2; for RSKH: 0.357; for RPWT: at most 0.2.
The same measure for WRDT: at most 0.2.
Take YTHT: the “one-hybrid fitness for binding NBS DNA” value is at most 0.2.
On to GRQT, for which the “one-hybrid fitness for binding NBS DNA” value was at most 0.2.
The same measure for QQRT: 0.8.
For the variant QRTS, the “one-hybrid fitness for binding NBS DNA” value came to 0.685.
Next, PLDA: at most 0.2; AGQV: at most 0.2.
The same measure for QHWF: at most 0.2.
Next, PVGQ: at most 0.2.
Turning to NMDM, the “one-hybrid fitness for binding NBS DNA” value was at most 0.2.
The same measure for FTPH: at most 0.2; for VLNW: at most 0.2; for MLQK: at most 0.2.
The same measure for GTQC: at most 0.2.
Take RQNN: the “one-hybrid fitness for binding NBS DNA” value is at most 0.2.
The same measure for SPDE: at most 0.2; for HRYT: at most 0.2.
Take TVPA: the “one-hybrid fitness for binding NBS DNA” value is at most 0.2.
Next, NETV: at most 0.2.
The same measure for LCPL: at most 0.2; for IMHE: at most 0.2.
The same measure for ATMH: at most 0.2; for PRRI: at most 0.2.
With SYYM, the “one-hybrid fitness for binding NBS DNA” value is at most 0.2.
In the case of DNLY, the “one-hybrid fitness for binding NBS DNA” value is at most 0.2.
Next, YVLV: at most 0.2; CHPG: at most 0.2; HWPR: at most 0.2.
Next, DDSM: at most 0.2; YSHW: at most 0.2.
The same measure for QTSK: 0.224; for NLEL: at most 0.2.
Take KGWF: the “one-hybrid fitness for binding NBS DNA” value is at most 0.2.
The same measure for PRNS: at most 0.2; for KKEP: at most 0.2; for GWWE: at most 0.2.
As to NTLI, the “one-hybrid fitness for binding NBS DNA” value is at most 0.2.
The same measure for TAQE: at most 0.2; for PECW: at most 0.2.
The same measure for TTTV: at most 0.2.
The same measure for SFTM: at most 0.2; for HHAG: at most 0.2.
KAGG: the “one-hybrid fitness for binding NBS DNA” value is at most 0.2.
FTNK: the “one-hybrid fitness for binding NBS DNA” value is at most 0.2.
The same measure for DYES: at most 0.2.
For the variant NGSK, the “one-hybrid fitness for binding NBS DNA” value is at most 0.2.
The same measure for NNWR: at most 0.2.
Next, EVDN: at most 0.2; TRVH: at most 0.2; DYET: at most 0.2.
Next, WFGY: at most 0.2; CTSF: at most 0.2.
For the variant YTRI, the “one-hybrid fitness for binding NBS DNA” value was at most 0.2.
Regarding YPLR, the “one-hybrid fitness for binding NBS DNA” value is at most 0.2.
The same measure for GVVG: at most 0.2; for RKYC: at most 0.2.
The same measure for TKAL: at most 0.2.
The same measure for EIVG: at most 0.2; for DRKI: at most 0.2; for YMPP: at most 0.2.
Regarding KFLS, the “one-hybrid fitness for binding NBS DNA” value was at most 0.2.
FFTW: the “one-hybrid fitness for binding NBS DNA” value was at most 0.2.
Next, SAKT: at most 0.2; MYRR: at most 0.2.
APKF: the “one-hybrid fitness for binding NBS DNA” value was at most 0.2.
The same measure for YICS: at most 0.2; for PELY: at most 0.2; for KIAS: at most 0.2.
The same measure for AALQ: at most 0.2; for NTMA: at most 0.2.
Next, PFTC: at most 0.2.
Turning to QCCD, the “one-hybrid fitness for binding NBS DNA” value is at most 0.2.
Regarding RIGP, the “one-hybrid fitness for binding NBS DNA” value was at most 0.2.
The same measure for VSHL: at most 0.2.
The same measure for AINV: at most 0.2; for GHAI: at most 0.2.
The same measure for HVGR: at most 0.2; for QENS: at most 0.2; for LVMG: at most 0.2.
Turning to TDCT, the “one-hybrid fitness for binding NBS DNA” value was at most 0.2.
Next, QMRY: 0.566; RKDN: at most 0.2; DERS: at most 0.2.
For the variant GQVQ, the “one-hybrid fitness for binding NBS DNA” value was at most 0.2.
Next, YFGS: at most 0.2.
Next, PPGY: at most 0.2; GKLS: at most 0.2.
The same measure for ICQS: at most 0.2; for HRQN: at most 0.2; for PPMT: at most 0.2.
Consider VPDE, for which the “one-hybrid fitness for binding NBS DNA” value is at most 0.2.
Next, DNIG: at most 0.2; KPRI: at most 0.2.
Next, SWPL: at most 0.2.
Next, NWKR: at most 0.2; GLNM: at most 0.2; GFPR: at most 0.2.
In the case of RNAH, the “one-hybrid fitness for binding NBS DNA” value was at most 0.2.
Next, QIRH: 0.44; RAHV: at most 0.2; ICRR: 0.291.
The same measure for VKLQ: at most 0.2; for PMVL: at most 0.2.
On to QHLE, for which the “one-hybrid fitness for binding NBS DNA” value was at most 0.2.
The same measure for RIPY: at most 0.2.
On to DYGS, for which the “one-hybrid fitness for binding NBS DNA” value is at most 0.2.
Next, IRIC: at most 0.2; RATL: at most 0.2; RNRH: at most 0.2.
On to DYGR, for which the “one-hybrid fitness for binding NBS DNA” value was at most 0.2.
Next, SVMW: at most 0.2.
Turning to LLAE, the “one-hybrid fitness for binding NBS DNA” value was at most 0.2.
The same measure for WPHN: at most 0.2.

(Values after a collection of fitness landscapes (doi:10.1016/j.celrep.2020.107928).)
